Assay results published in PubChem BioAssay AID1030 (National Center for Advancing Translational Sciences (NCATS), 2008).
Among all 220,000 compounds or so, about 16,000 (7.3%) were called active. Inconclusive results, whose numbers are uncertain, are shown with a selection of clear calls. Calls come from the whole dose curve; as a rule, active = well fitted inhibition curve with a large enough effect (not every such curve was filed as active); inconclusive = small, poorly fitted or top-dose-only effect, or another doubt; inactive = no such curve, though single readings can be large or run the other way. Potencies of inconclusive entries are left out as doubtful fits.

target: Aldehyde dehydrogenase 1A1 (Homo sapiens) (UniProt P00352); experiment: qHTS Assay for Inhibitors of Aldehyde Dehydrogenase 1 (ALDH1A1); settings: Purified ALDH1A1, NADH fluorescence, propionaldehyde substrate; series mostly up to 75.3 µM;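 for activity, negative = inhibition: plate controls were no enzyme wells and a reference inhibitor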
Chain of UniProt P00352 (P00352 whole entry, looked up): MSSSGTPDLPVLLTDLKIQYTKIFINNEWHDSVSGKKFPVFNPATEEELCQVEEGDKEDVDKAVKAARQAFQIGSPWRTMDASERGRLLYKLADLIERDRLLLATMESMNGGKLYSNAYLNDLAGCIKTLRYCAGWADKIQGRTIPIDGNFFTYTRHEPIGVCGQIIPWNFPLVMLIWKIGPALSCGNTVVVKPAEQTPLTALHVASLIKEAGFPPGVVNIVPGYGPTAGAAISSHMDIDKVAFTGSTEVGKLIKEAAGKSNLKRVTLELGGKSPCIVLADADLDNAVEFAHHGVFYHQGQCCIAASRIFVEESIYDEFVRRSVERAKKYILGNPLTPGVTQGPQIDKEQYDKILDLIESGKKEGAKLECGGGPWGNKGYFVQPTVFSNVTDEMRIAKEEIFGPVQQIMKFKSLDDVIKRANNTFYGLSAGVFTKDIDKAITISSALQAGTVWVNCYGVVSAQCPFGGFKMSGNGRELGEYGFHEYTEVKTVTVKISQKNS
Potency is the fitted concentration of half-maximal effect; tags give direction and shape of the fitted curve.

Compound	Potency	activity, negative = inhibition
O=C(C1COc2ccccc2O1)N1CCc2ccccc21 (centres undefined)	inconclusive [inhibitor, single point]	–
COc1cc(C(=O)c2ccccc2)c(OC)cc1C(=O)Nc1ccc(O)cc1	inactive	–
Cc1cc(C)nc(N/C(=N\S(=O)(=O)Cc2ccccc2)Nc2ccc(F)c(Cl)c2)n1	inactive	–
NC(=O)C1CCN(C(=O)/C=C/c2ccco2)CC1	inconclusive [inhibitor, single point]	–
NC(=O)C1CCN(CC(=O)NCc2ccccc2)CC1	inactive	–
CCOC(=O)c1c(NC(=O)Cn2cnc([N+](=O)[O-])n2)sc2c1CCCC2	inconclusive [inhibitor, single point]	–
COc1cccc(Cn2c(=O)c(-c3ccc(Cl)cc3)nc3cncnc32)c1	inconclusive [inhibitor, partial curve]	–
O=[N+]([O-])c1ccc(CSc2ncnc3c2ncn3C2OC(CO)C(O)C2O)cc1 (centres undefined)	inactive	–
CCCc1cc(O)c2c(C)cc(=O)oc2c1	active: 15.8 µM	–
Nc1sccc1C(=O)c1ccccc1	inconclusive [inhibitor, single point]	–
COc1ccccc1/C=C/C(=O)N1CCCC1	inactive	–
Cc1ccc(NC(=O)CSc2ccc(C(N)=O)cc2[N+](=O)[O-])cc1	inconclusive [inhibitor, single point]	–
O=C(NN1C(=O)/C(=C/C=C/c2ccccc2)SC1=S)c1ccncc1	active: 4.47 µM	–
CC(=O)Oc1cc2oc(=O)c3c(c2cc1Cl)CCC3	inconclusive [inhibitor, partial curve]	–
CC(=O)NC1=C(N(C)C2CCS(=O)(=O)C2)C(=O)c2ccccc2C1=O (centres undefined)	inconclusive [inhibitor, single point]	–
O=C(/C=C\c1ccc2c(c1)OCO2)NC1(C(=O)Nc2ccc3c(c2)OCCO3)CCCCC1	inconclusive [inhibitor, single point]	–
COc1cc(NC(=O)c2cccnc2Sc2ccc(Cl)cc2)cc(OC)c1OC	inconclusive [inhibitor, single point]	–
C[C@H]1Cc2c(-c3ccccc3)nc3c(c2CO1)CN(C(=O)c1ccco1)CC3	–	inactive: 6.94% [at 13.5 µM]
CCCN(CCC)CC(O)Cn1cc(/C=C/C(=O)c2ccccc2)c2ccccc21 (centres undefined)	inconclusive [inhibitor, single point]	–
COc1ccc(-c2nc(S(=O)(=O)c3ccccc3)c(N3CCOCC3)o2)cc1	active: 22.4 µM	–
COC(=O)c1cc(-c2ccc(C)cc2)n[nH]1	inactive	–
CCC(C)NC(=S)Nc1ccc(C(=O)OC)cc1 (centres undefined)	inactive	–
C/C(=N\NC(N)=O)C1(C)CCCCC1	active: 25.1 µM	–
O=C(O)CCc1ccc(-c2cccs2)n1CC1CCCO1 (centres undefined)	inconclusive [inhibitor, partial curve]	–
Cc1ccc2c(c1)c1c3n2CCN(C(=O)CN2CCN(C)CC2)C3CCC1 (centres undefined)	inconclusive [inhibitor, single point]	–

Compound	Potency	activity, negative = inhibition
O=c1cc(-c2c(F)c(F)c(F)c(F)c2F)oc2c(F)c(F)c(F)c(F)c12	inconclusive [inhibitor, partial curve]	–
Cc1ccc(C)c(S(=O)(=O)N/N=C/c2ccc(F)cc2)c1	inconclusive [inhibitor, single point]	–
N#Cc1ccc2c(c1)N(CCCN1CCC(O)CC1)c1ccccc1S2	inactive	–
O=C(CCCc1ccccc1)N1CCN(c2ccc([N+](=O)[O-])cc2)CC1	active: 22.4 µM	–
O=C(Cc1ccccc1)N/N=C/c1ccc2cccc(O)c2n1	inactive	–
O=C(c1ccc([N+](=O)[O-])cc1)N1CCN(Cc2ccccc2[N+](=O)[O-])CC1	active: 10 µM	–
CC1=N/C(=C/c2ccco2)C(=O)O1	inactive	–
CCN=C1NN=C(c2cc(C)n(CCc3ccccc3)c2C)CS1	inconclusive [inhibitor, single point]	–
O=C(CCn1cnc(-c2ccccc2)c1-c1ccccc1)N/N=C/c1ccc(O)cc1	inconclusive [inhibitor, partial curve]	–
N#Cc1c(-c2ccco2)nc(SCC(=O)Nc2cccc(Cl)c2)[nH]c1=O	inconclusive [inhibitor, partial curve]	–
CC(O)CNCCOc1ccccc1-c1ccccc1 (centres undefined)	active: 11.2 µM	–
N=C1C(=O)OCC1c1ccccc1NC(=O)CN1CCOCC1 (centres undefined)	inactive	–
CC(C)(C)C1CCC2(CC1)C(C#N)=C(SCC(=O)NC1CCCCC1)NC(=O)C2C#N (centres undefined)	inconclusive [inhibitor, single point]	–
COCCNC(=O)C(c1ccc(C)o1)N(Cc1ccco1)C(=O)c1snc(C(N)=O)c1N (centres undefined)	inconclusive [inhibitor, single point]	–
CC1CC(C)CN(c2cc(N(C)CCO)c([N+](=O)[O-])c3nonc23)C1 (centres undefined)	active: 11.2 µM	–
Cn1nc(-c2ccc(Cl)cc2)c2cc(C(=O)N3CCN(C(=O)c4ccco4)CC3)sc21	inconclusive [inhibitor, partial curve]	–
COc1ccc(-c2cc(-c3nnc(COC(=O)c4ccncc4)o3)c3ccccc3n2)cc1OC	inactive	–
COCCn1c(SC2CCCCC2=O)nnc1-c1ccncc1 (centres undefined)	inconclusive [inhibitor, single point]	–
CCOC(=O)c1cccnc1SC(CC)C(=O)N1CCOCC1 (centres undefined)	inactive	–
Cc1cc(C(=O)NNc2ccc(C)c(C)c2)no1	inconclusive [inhibitor, single point]	–
CCC(=O)c1ccc(OCCn2cnc3ccccc32)cc1	inactive	–
CN1CCN(C(=O)c2sc(=S)n(-c3ccccc3)c2N)CC1	active: 3.16 µM	–
CC(C)c1cc(C(=O)N2CCCC(C(=O)c3ccc4ccccc4c3)C2)on1 (centres undefined)	inconclusive [inhibitor, single point]	–
O=[N+]([O-])c1ccc2c(c1)C(N1CCOCC1)/C(=C/COc1ccc3ccccc3c1Br)O2 (centres undefined)	inconclusive [inhibitor, partial curve, poor fit]	–
